Results: paper PMC4441479
Results are given in words; binding and its absence hold for the method and conditions named. Binding seen in cells or lysates may run through a third protein. Tags and fused reporters may be left off the sequences shown.

Sequences of proteins named here, by UniProt entry; tags and fusion partners are left off.
UniProt Q9UN81: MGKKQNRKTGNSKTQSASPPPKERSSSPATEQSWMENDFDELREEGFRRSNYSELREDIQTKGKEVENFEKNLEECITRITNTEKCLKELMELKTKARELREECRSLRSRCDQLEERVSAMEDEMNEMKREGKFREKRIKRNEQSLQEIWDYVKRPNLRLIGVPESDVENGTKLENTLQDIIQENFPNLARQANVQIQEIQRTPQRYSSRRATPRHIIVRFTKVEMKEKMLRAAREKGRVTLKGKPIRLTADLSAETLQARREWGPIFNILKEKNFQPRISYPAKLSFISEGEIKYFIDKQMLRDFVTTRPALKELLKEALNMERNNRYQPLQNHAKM

How the values were obtained:
[1] = biological target: T1, FLAG-tagged MOV10 (human) (UniProt Q9HCE1); assay: co-IP; not told for this result (no figure cited); the sentence follows the co-IPs of ZAP and MOV10 of Fig 4C
T1 sequence: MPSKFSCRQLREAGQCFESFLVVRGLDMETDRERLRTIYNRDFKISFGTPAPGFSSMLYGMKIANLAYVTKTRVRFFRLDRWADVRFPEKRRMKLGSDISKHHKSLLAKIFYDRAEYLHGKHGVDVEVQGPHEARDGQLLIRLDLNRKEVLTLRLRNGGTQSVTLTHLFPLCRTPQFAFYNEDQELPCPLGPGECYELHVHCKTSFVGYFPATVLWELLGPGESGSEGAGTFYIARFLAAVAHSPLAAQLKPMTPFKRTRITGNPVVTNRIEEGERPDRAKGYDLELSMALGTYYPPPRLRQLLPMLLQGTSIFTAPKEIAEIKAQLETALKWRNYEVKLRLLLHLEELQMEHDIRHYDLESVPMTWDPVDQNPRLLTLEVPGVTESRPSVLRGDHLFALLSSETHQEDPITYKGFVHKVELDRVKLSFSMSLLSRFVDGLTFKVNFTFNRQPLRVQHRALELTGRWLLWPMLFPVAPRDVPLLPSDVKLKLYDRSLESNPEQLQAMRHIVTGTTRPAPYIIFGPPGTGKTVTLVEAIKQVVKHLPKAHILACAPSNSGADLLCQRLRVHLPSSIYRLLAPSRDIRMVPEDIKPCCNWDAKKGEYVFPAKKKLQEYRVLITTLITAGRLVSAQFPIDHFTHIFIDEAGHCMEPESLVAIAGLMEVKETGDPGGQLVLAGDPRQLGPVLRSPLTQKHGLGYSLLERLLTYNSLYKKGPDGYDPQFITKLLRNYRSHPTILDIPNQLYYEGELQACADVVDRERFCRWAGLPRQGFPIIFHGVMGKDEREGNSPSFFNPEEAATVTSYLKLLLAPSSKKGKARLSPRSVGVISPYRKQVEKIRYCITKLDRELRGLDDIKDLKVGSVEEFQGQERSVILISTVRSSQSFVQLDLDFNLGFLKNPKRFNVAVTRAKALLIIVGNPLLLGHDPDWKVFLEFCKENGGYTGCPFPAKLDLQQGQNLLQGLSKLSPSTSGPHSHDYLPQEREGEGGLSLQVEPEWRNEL

[2] = biological target: L1-RP ORF1p with a tandem FLAG-HA tag fused to its C-terminus, expressed from pc-L1-1FH (human) (UniProt Q9UN81); assay: co-IP; pc-L1-1FH (ORF1p-FLAG-HA) expressed in 293T cells with tagged test proteins or with endogenous ZAP; IP of L1 RNP complexes on α-FLAG agarose without RNase; Western blot

binding [1]: no binding | binding [2]: no binding
B1: rat HA-NZAP (domain or fragment, UniProt Q8K3Y6 1-254)
chain: MADPGVCCFITKILCAHGGRMTLEELLGEIRLPEAQLYELLETAGPDRFVLLETGGQAGITRSVVATTRARVCRRKYCQRPCDSLHLCKLNLLGRCHYAQSQRNLCKYSHDVLSEQNFQILKNHELSGLNQEELACLLVQSDPFFLPEICKSYKGEGRKQTCGQPQPCERLHICEHFTRGNCSYLNCLRSHNLMDRKVLTIMREHGLSPDVVQNIQDICNNKHARRNPPGTRAAHPHRRGGAHRDRSKSRDRFL
